Data taken from US5391540A, “Substituted pyridine compounds” (Rohm and Haas Company, priority 1993, dated 1995).
The name of at least one read-out is uncertain. Some compounds share one range, which may span the group rather than tell each member.

Legend:
Experiment in all cases: Post-emergence herbicidal activity (Table C)
Type in all cases: in vivo
Yellow Nutsedge = settings: Yens, 11.2 kg/ha, 10-14 days
Morningglory = settings: Mogl, 11.2 kg/ha, 10-14 days
Cocklebur = settings: Cobu, 11.2 kg/ha, 10-14 days
Velvetleaf = settings: Vele, 11.2 kg/ha, 10-14 days
Downy Brome = settings: Dobr, 11.2 kg/ha, 10-14 days
Indian Mustard = settings: Inmu, 11.2 kg/ha, 10-14 days
Barnyardgrass = settings: Bygr, 11.2 kg/ha, 10-14 days
Wild Buckwheat = settings: Wibw, 11.2 kg/ha, 10-14 days
Seedling Johnsongrass = settings: Sejg, 11.2 kg/ha, 10-14 days
Annual Bluegrass = settings: Anbg, 11.2 kg/ha, 10-14 days

Structure (SMILES) | post-emergent herbicidal activity index (Yellow Nutsedge) | post-emergent herbicidal activity index (Morningglory) | post-emergent herbicidal activity index (Cocklebur) | post-emergent herbicidal activity index (Velvetleaf) | post-emergent herbicidal activity index (Downy Brome) | post-emergent herbicidal activity index (Indian Mustard) | post-emergent herbicidal activity index (Barnyardgrass) | post-emergent herbicidal activity index (Wild Buckwheat) | post-emergent herbicidal activity index (Seedling Johnsongrass) | post-emergent herbicidal activity index (Annual Bluegrass)
C=C1CC(c2c(C(F)(F)F)nc(OC)c(C(=O)OC)c2CC(C)C)OC1=O (stereo not drawn) [Compound 90, 3-pyridinecarboxylic acid, 5-(tetrahydro-4-methylene-5-oxo-2-furanyl)-2-methoxy-4-(2-methylpropyl)-6-(trifluoromethyl)-, methyl ester] | 0 (0-24% inhibition) | 0 (0-24% inhibition) | 0 (0-24% inhibition) | 0 (0-24% inhibition) | 0 (0-24% inhibition) | 1 (25-49% inhibition) | 0 (0-24% inhibition) | 0 (0-24% inhibition) | 1 (25-49% inhibition) | 0 (0-24% inhibition)
COC(=O)c1c(OC)nc(C(F)(F)F)c(-c2nccs2)c1CC(C)C [Compound 129, 3-pyridinecarboxylic acid, 2-methoxy-4-(2-methylpropyl)-5-(2-thiazolyl)-6-(trifluoromethyl)-, methyl ester] | 0 (0-24% inhibition) | 0 (0-24% inhibition) | 2 (50-74% inhibition) | 1 (25-49% inhibition) | 0 (0-24% inhibition) | 2 (50-74% inhibition) | 2 (50-74% inhibition) | 2 (50-74% inhibition) | 2 (50-74% inhibition) | 0 (0-24% inhibition)
COC(=O)c1c(OC)nc(C(F)(F)F)c(C#N)c1CC(C)C [Compound 106, 3-pyridinecarboxylic acid, 5-cyano-2-methoxy-4-(2-methylpropyl)-6-(trifluoromethyl)-, methyl ester] | 0 (0-24% inhibition) | 0 (0-24% inhibition) | 0 (0-24% inhibition) | 0 (0-24% inhibition) | 0 (0-24% inhibition) | 0 (0-24% inhibition) | 0 (0-24% inhibition) | 1 (25-49% inhibition) | 2 (50-74% inhibition) | 0 (0-24% inhibition)
COC(=O)c1c(OC)nc(C(F)(F)F)c(C2SCCCS2)c1CC(C)C [Compound 94, 3-pyridinecarboxylic acid, 5-(1,3-dithian-2-yl)-2-methoxy-4-(2-methylpropyl)-6-(trifluoromethyl)-, methyl ester] | 0 (0-24% inhibition) | 2 (50-74% inhibition) | 2 (50-74% inhibition) | 2 (50-74% inhibition) | 0 (0-24% inhibition) | 2 (50-74% inhibition) | 2 (50-74% inhibition) | 2 (50-74% inhibition) | 1 (25-49% inhibition) | 2 (50-74% inhibition)
COC(=O)c1c(OC)nc(C(F)(F)F)c(C=O)c1C1CCC1 [Compound 139, 3-pyridinecarboxylic acid, 4-cyclobuty1-5-formy1-2-methoxy-6-(trifluoromethyl)-, methyl ester] | 0 (0-24% inhibition) | 2 (50-74% inhibition) | 0 (0-24% inhibition) | 1 (25-49% inhibition) | 0 (0-24% inhibition) | 2 (50-74% inhibition) | 0 (0-24% inhibition) | 2 (50-74% inhibition) | 1 (25-49% inhibition) | 0 (0-24% inhibition)
COC(=O)c1c(OC)nc(C(F)(F)F)c(C(=O)n2cc(Cl)cn2)c1CC(C)C [Compound 104] | 0 (0-24% inhibition) | 2 (50-74% inhibition) | 2 (50-74% inhibition) | 2 (50-74% inhibition) | 0 (0-24% inhibition) | 1 (25-49% inhibition) | 2 (50-74% inhibition) | 2 (50-74% inhibition) | 1 (25-49% inhibition) | 0 (0-24% inhibition)
COC(=O)c1c(OC)nc(C(F)(F)F)c(C(=O)n2ccc(F)n2)c1C1CCC1 [Compound 140, 3-pyridinecarboxylic acid, 4-cyclobuty1-5-[(3-fluoro-1H-pyrazo1-1-yl)carbonyl]-2-methoxy-6-(trifluoromethyl)-, methyl ester] | 0 (0-24% inhibition) | 2 (50-74% inhibition) | 2 (50-74% inhibition) | 2 (50-74% inhibition) | 0 (0-24% inhibition) | 2 (50-74% inhibition) | 1 (25-49% inhibition) | 2 (50-74% inhibition) | 2 (50-74% inhibition) | 0 (0-24% inhibition)
COC(=O)c1c(OC)nc(C(F)(F)F)c(C(N)=O)c1CC(C)C [Compound 105, 3-pyridinecarboxylic acid, 5-(aminocarbonyl)-2-methoxy-4-(2-methylpropyl)-6-(trifluoromethyl)-, methyl ester] | 0 (0-24% inhibition) | 0 (0-24% inhibition) | 0 (0-24% inhibition) | 0 (0-24% inhibition) | 0 (0-24% inhibition) | 0 (0-24% inhibition) | 0 (0-24% inhibition) | 1 (25-49% inhibition) | 0 (0-24% inhibition) | 0 (0-24% inhibition)
COC(=O)c1c(OC)nc(C(F)(F)F)c(C2=NCCCS2)c1CC(C)C [Compound 98, 3-pyridinecarboxylic acid, 5-(5,6-dihydro-4H-1,3-thiazin-2-yl)-2-methoxy-4-(2-methylpropyl)-6-(trifluoromethyl)-, methyl ester] | 0 (0-24% inhibition) | 1 (25-49% inhibition) | 1 (25-49% inhibition) | 2 (50-74% inhibition) | 0 (0-24% inhibition) | 3 (75-99% inhibition) | 2 (50-74% inhibition) | 2 (50-74% inhibition) | 3 (75-99% inhibition) | 0 (0-24% inhibition)
